# Assay results as given in the supplement of paper PMC11417369.
# This is one part of the list.
# Test system: PF3D7_0420300 AP2 domain 1 (GST-tagged)
# Experiment: gcPBM binding intensity (ln(normalized median fluorescence intensity)); higher = stronger DNA binding
# Method in brief: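 Binding intensity values are the highest Masliner-normalised natural-log median intensity among replicate spots of either probe orientation. The binding step lasted 1 h in 1× PBS with 1% milk, 0.2 mg/ml BSA, 0.5% salmon testes DNA and 0.03% Triton X-100, using GST-tagged P. falciparum DNA-binding domains expressed in E. coli on an Agilent 4 × 180k array of primer-extended double-stranded 36-bp intergenic genomic probes plus negative controls. Alexa488 anti-GST antibody and a 488 nm scan detected bound protein.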
row,Sequence,gcPBM binding intensity (ln)
1,ATAATACCCAAGCACACACACACACCGATATATATA [CACACA_site8344],10.4
2,ATTAAAGGAAGCAAAACATGCAACAGCAATATTGCA [TGCATGCA_site452],9.14
3,ATATGGAATAATACGCGTACACACATATATATATTA [XGTACX_site307],9.62
4,TTTATATCATTACAAGTGCATATCATCATAAATTCT [GTGCAC_site9878],9.05
5,TCTTGATTATATAGTACTACACATTATAAAAAAATT [XGTACX_site2465],9.06
6,TATATATAAATATATGTGCACTTTTTATATTTATAT,9.22
7,AATTTTTTTTTAATCATGCACACTGTTAAAAGAATA [CACACA_site1240],9.06
8,AAAAAATAGAATATAAAAATAAAGGAATTAAATTAA [XGTACX_negctrl_site420],9.19
9,TTTTAAAAATTAAGTGCATGTCCTTATAAAAAAAAA [TGCATGCA_site845],8.81
10,TTCATATATTTAGGACGTACTTTTATATTACTATAT [XGTACX_site6456],9.38
11,AATGATCATAAATACACACACACAAAAAAAAAAAAA [CACACA_site6072],9.94
12,TATTAAAAAAATGTATGTACATATATAAATTTTTTT [XGTACX_site1094],8.98
13,TTTCTCCCATTTTTTAGTACACAAAATATATATGTA [XGTACX_site7218],9.31
14,GATGGATTTATTTAAAGTACATATTTAAAAAACTGT [XGTACX_site7567],9.08
15,AAAGTAAAAGAAAGCACACACACATGTATATATGTA [CACACA_site3857],9.8
16,AAAAAAAAAAAATATACACACACATATATATATATA [CACACA_site9123],9.65
17,AACAACAATTTCGTCATACACACATTCAGAATATAT [CACACA_site2371],9.6
18,TATATATATATATACACACACACCCTAAAAATATAT [CACACA_site1611],9.97
19,AAAATTACTATATGAACACACATGATTAGATATATG [CACACA_site3083],9.48

row,Sequence,gcPBM binding intensity (ln)
1,TGAAAGAATTAATTTTGTACATATAAAAATTTTATT [XGTACX_site8500],8.87
2,TTTTTATTTTTAAAGGCACACACATTTTTATTTTTA [CACACA_site8624],9.54
3,AATAAATAAATAATATAATGAAATTATAAAATGTGG [TGCATGCA_negctrl_site385],9.41
4,TATTTGTGCCAAAAATGAAAAAGTTTGTATAAAACC [CACACA_negctrl_site1406],9.02
5,AAATGAAATTTGTATACACACAAATATATTTATATA [CACACA_site6525],9.2
6,AAGAAAAAAAATATATATGTATATATTATTTTAACA [TGCATGCA_negctrl_site534],9.07
7,ATATTTTTTGCTATTACACACAAGGGATTATTATTT [CACACA_site7776],9.85
8,TAATAATAGTCTAATACATGCATCGATAACGGAACT [TGCATGCA_site98],9.31
9,ATGTTAATAACTTGTGGTACTGTTATAATTTAGTAA [XGTACX_site2114],9.3
10,ATATAAGTGTATCTAACACACAAATATGTAAAAATG [CACACA_site7006],9.48
11,ATATATCTACTGTGTTGTACTGTTAATATTTGAATA [XGTACX_site1931],9.46
12,TATATACACATATATACACACACATATATATATATA [CACACA_site9127],9.79
13,CAGGCGTGAAATATACGTACACACATTATTTATATT [XGTACX_site5337],9.56
14,ATATAAATTATTTACACACAAACATTTATACTTTTA [CACACA_site3448],9.56
15,TTTTGTTACGGCAAGGAAGTTAAGCATAAATGAATG [GTGCAC_negctrl_site173],9.24
16,AATATATGTATATATTTTTTTTTTTCCCTTACAAAT [GTGCAC_negctrl_site428],9.07
17,GTTAAAATTGGGGACGCATGTTCCTTTCCTTTTTTT [TGCATGCA_site1002],9.08
18,TTATAAATGTAACGATGTACTTTTAAAAGTTTCCTT [XGTACX_site109],8.97
19,GGAATGGTACATGATACACACACGCACATATATATA [CACACA_site5825],9.86

row,Sequence,gcPBM binding intensity (ln)
1,TATATTAAACAATATACACACATTAATGTATACATA [CACACA_site2755],9.46
2,GACAAAAAATTAAAATAAAATAATAATATAATAAAA [GTGCAC_negctrl_site234],9.19
3,ATATAATAGTTATATTGTACATAAATTATACACCTT [XGTACX_site628],9.22
4,TATAAACACCCATATAAACACACATATAAACCAACA [CACACA_site8790],9.79
5,ATACGCACACATATATGTACATATTGTATATATATA [XGTACX_site3962],9.52
6,ACAATTTACACTTAAACACACAAAAAAAAATTATAT [CACACA_site2065],9.66
7,TGTTTTATTTTATTAGTGCATTTTTATTTATAATAG [GTGCAC_site9453],9.38
8,GCATCGATCAAACATACACACATGGTTAATAAAAAT [CACACA_site8651],9.57
9,AAGGTAGAAATATGTTGTACGGTTTGGAGGAAGCAA [XGTACX_site1105],9.38
10,ACATATATATTCATATGTACATATACATACATACAT [XGTACX_site4563],9.45
11,TTTTCATAAAATCATTGTACATTTATCGTATATTAA [XGTACX_site3855],9.17
12,AAAATATCTTATATATGTACATATTTATATTTATAT [XGTACX_site6027],9.22
13,ATATTGTAAGTAAACACACACACATATATATGTATA [CACACA_site8124],9.82
14,TTGTTTTTTTTTGGCTGTACGTTCATAAATTTTTTT [XGTACX_site4165],9.48
15,TTTTTTATAAAATTTTTTTTTTAAAATATTAAAACT [XGTACX_negctrl_site240],8.55
16,AAGCTATATATAGGCAGTACTTTGTAAGTGTAGATA [XGTACX_site8365],9.16
17,AAAAAAAAAAAAAAAACACACAGAACAATATATAAA [CACACA_site4698],9.76
18,TATATGCATATACATACACACATAACACATACGTTT [CACACA_site3832],9.66
